Laboratory results taken from paper PMC5065627.
These are yes or no findings as the source states them, for the method shown. Some binding calls cover weakened binding; strength is not graded here.

T1: LIGHT-REGULATED WD1 (LWD1), yeast two-hybrid bait (Arabidopsis thaliana) (UniProt Q9LPV9)
T1 sequence: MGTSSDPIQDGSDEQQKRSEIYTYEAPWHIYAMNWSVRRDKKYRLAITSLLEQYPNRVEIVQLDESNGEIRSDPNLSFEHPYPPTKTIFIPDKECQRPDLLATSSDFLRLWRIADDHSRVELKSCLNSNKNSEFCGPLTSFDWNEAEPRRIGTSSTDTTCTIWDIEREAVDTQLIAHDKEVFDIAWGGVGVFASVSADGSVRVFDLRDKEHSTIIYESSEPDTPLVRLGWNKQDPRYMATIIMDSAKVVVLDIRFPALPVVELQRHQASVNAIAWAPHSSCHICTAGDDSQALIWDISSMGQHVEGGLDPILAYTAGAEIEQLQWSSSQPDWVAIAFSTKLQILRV


Target: T1, LIGHT-REGULATED WD1 (LWD1), yeast two-hybrid bait (Arabidopsis thaliana)
Test: two-hybrid; library screen: LWD1 as bait against a prey library of about 1,400 Arabidopsis full-length transcription factors; positive clones sequenced

| binding | Binder |
| --- | --- |
| binds | TCP3, prey of the transcription factor library (protein, UniProt Q9MAH8 1-391) MAPDNDHFLDSPSPPLLEMRHHQSATENGGGCGEIVEVQGGHIVRSTGRKDRHSKVCTAKGPRDRRVRLSAPTAIQFYDVQDRLGFDRPSKAVDWLITKAKSAIDDLAQLPPWNPADTLRQHAAAAANAKPRKTKTLISPPPPQPEETEHHRIGEEEDNESSFLPASMDSDSIADTIKSFFPVASTQQSYHHQPPSRGNTQNQDLLRLSLQSFQNGPPFPNQTEPALFSGQSNNQLAFDSSTASWEQSHQSPEFGKIQRLVSWNNVGAAESAGSTGGFVFASPSSLHPVYSQSQLLSQRGPLQSINTPMIRAWFDPHHHHHHHQQSMTTDDLHHHHPYHIPPGIHQSAIPGIAFASSGEFSGFRIPARFQGEQEEHGGDNKPSSASSDSRH |
| binds | TCP19, prey of the transcription factor library (protein, UniProt Q9LT89 1-293) MESNHEGNAIQVIDQVTTMTHLSDPNPKTKPGMMLMKQEDGYLQPVKTKPAPKRPTSKDRHTKVEGRGRRIRMPAGCAARVFQLTRELGHKSDGETIRWLLERAEPAIIEATGTGTVPAIAVSVNGTLKIPTSSPVLNDGGRDGDGDLIKKRRKRNCTSDFVDVNDSCHSSVTSGLAPITASNYGVNILNVNTQGFVPFWPMGMGTAFVTGGPDQMGQMWAIPTVATAPFLNVGARPVSSYVSNASDAEAEMETSGGGTTQPLRDFSLEIYDKRELQFLGGSGNSSPSSCHET |
